To fix the notation:
T1: RBFOX1 RRM (Homo sapiens, UniProt Q9NWB1 109-208)
T1 sequence: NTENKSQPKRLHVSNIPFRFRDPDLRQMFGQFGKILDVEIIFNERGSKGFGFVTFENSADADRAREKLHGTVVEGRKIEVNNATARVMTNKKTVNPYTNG

B1: UAUACAU (DNA:RNA)
RNA: GGGAGACCGGAAUUCAGAUUGUCCUAUACAUUUAAAUCCCGUCGUAGCCACCA
DNA 1: CAATCTGAATTCCGGTCTCCC
DNA 2: TGGTGGCTACGACGGGATT
B2: CAAUCAC (DNA:RNA)
RNA: B1 RNA with U25C, U27A, A28U, U31C
DNA 1: CAATCTGAATTCCGGTCTCCC
DNA 2: TGGTGGCTACGACGGGATT
B3: GUCAAAU (DNA:RNA)
RNA: B1 RNA with U25G, A26U, U27C, C29A
DNA 1: CAATCTGAATTCCGGTCTCCC
DNA 2: TGGTGGCTACGACGGGATT
B4: CAUCAGC (DNA:RNA)
RNA: B1 RNA with U25C, A28C, C29A, A30G, U31C
DNA 1: CAATCTGAATTCCGGTCTCCC
DNA 2: TGGTGGCTACGACGGGATT
B5: CGGCAGC (DNA:RNA)
RNA: GGGAGACCGGAAUUCAGAUUGUCCCGGCAGCUUAAAUCCCGUCGUAGCCACCA
DNA 1: CAATCTGAATTCCGGTCTCCC
DNA 2: TGGTGGCTACGACGGGATT
B6: UGCCUUG (DNA:RNA)
RNA: B5 RNA with C25U, G27C, A29U, G30U, C31G
DNA 1: CAATCTGAATTCCGGTCTCCC
DNA 2: TGGTGGCTACGACGGGATT
B7: UAUCUAG (DNA:RNA)
RNA: B1 RNA with A28C, C29U, U31G
DNA 1: CAATCTGAATTCCGGTCTCCC
DNA 2: TGGTGGCTACGACGGGATT
B8: UCGUUCU (DNA:RNA)
RNA: B1 RNA with A26C, U27G, A28U, C29U, A30C
DNA 1: CAATCTGAATTCCGGTCTCCC
DNA 2: TGGTGGCTACGACGGGATT
B9: UAGCUAA (DNA:RNA)
RNA: B1 RNA with U27G, A28C, C29U, U31A
DNA 1: CAATCTGAATTCCGGTCTCCC
DNA 2: TGGTGGCTACGACGGGATT
B10: UAGAGAC (DNA:RNA)
RNA: B1 RNA with U27G, C29G, U31C
DNA 1: CAATCTGAATTCCGGTCTCCC
DNA 2: TGGTGGCTACGACGGGATT
B11: UCCACUA (DNA:RNA)
RNA: B1 RNA with A26C, U27C, A30U, U31A
DNA 1: CAATCTGAATTCCGGTCTCCC
DNA 2: TGGTGGCTACGACGGGATT
B12: GCGUAUA (DNA:RNA)
RNA: B5 RNA with C25G, G26C, C28U, G30U, C31A
DNA 1: CAATCTGAATTCCGGTCTCCC
DNA 2: TGGTGGCTACGACGGGATT
B13: UAUCCAC (DNA:RNA)
RNA: B1 RNA with A28C, U31C
DNA 1: CAATCTGAATTCCGGTCTCCC
DNA 2: TGGTGGCTACGACGGGATT
B14: UAUGGCA (DNA:RNA)
RNA: B1 RNA with A28G, C29G, A30C, U31A
DNA 1: CAATCTGAATTCCGGTCTCCC
DNA 2: TGGTGGCTACGACGGGATT
B15: CUGAAAA (DNA:RNA)
RNA: B5 RNA with G26U, C28A, G30A, C31A
DNA 1: CAATCTGAATTCCGGTCTCCC
DNA 2: TGGTGGCTACGACGGGATT
B16: UUACCGU (DNA:RNA)
RNA: B1 RNA with A26U, U27A, A28C, A30G
DNA 1: CAATCTGAATTCCGGTCTCCC
DNA 2: TGGTGGCTACGACGGGATT
B17: UCCGGUU (DNA:RNA)
RNA: B1 RNA with A26C, U27C, A28G, C29G, A30U
DNA 1: CAATCTGAATTCCGGTCTCCC
DNA 2: TGGTGGCTACGACGGGATT
B18: GUCAAGU (DNA:RNA)
RNA: B5 RNA with C25G, G26U, G27C, C28A, C31U
DNA 1: CAATCTGAATTCCGGTCTCCC
DNA 2: TGGTGGCTACGACGGGATT
B19: AGUGACU (DNA:RNA)
RNA: B5 RNA with C25A, G27U, C28G, G30C, C31U
DNA 1: CAATCTGAATTCCGGTCTCCC
DNA 2: TGGTGGCTACGACGGGATT
B20: GUUUUCG (DNA:RNA)
RNA: B1 RNA with U25G, A26U, A28U, C29U, A30C, U31G
DNA 1: CAATCTGAATTCCGGTCTCCC
DNA 2: TGGTGGCTACGACGGGATT

Changes are numbered by the printed parent chain; changes in the protein carry UniProt numbers. The list shows a part of the results.

The target of the assay is T1, RBFOX1 RRM. Nature of the assay: EMSA; HiTS-Eq, 1 nM pool, 10 min; buffer printed only for the single-RNA assays: 10 mM Tris pH 7.5, 150 mM NaCl, 3.4 mM EDTA, 0.001% NP-40, 30 C. Conditions: tags: His6 N-terminal (pET28a); label: 5' 32P. In outline: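 These values rest on relative association constants, computed from read-count changes of each RNA species versus the control reaction and normalised to the cognate motif. Reads came from free RNA recovered by 8% native PAGE after purified RbFox RRM (wild type or mutant) at increasing concentrations was equilibrated for 10 min in 50 µL with 1 nM of a 5′-radiolabelled pool with 7 randomized nucleotides and DNA-annealed flanks.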
On the technique in general: A gel shift assay detects complexes by their altered migration in electrophoresis.
Turning to B1, the binding signal is 0.00212 KA relative to UGCAUGU.
In the case of B2, the binding signal was 0.00113 KA relative to UGCAUGU.
Take B3: the binding signal is 0.00186 KA relative to UGCAUGU.
For B4 the value was 0.00375 KA relative to UGCAUGU.
With B5, the binding signal was 0.0118 KA relative to UGCAUGU.
In the case of B6, the binding signal was 0.0505 KA relative to UGCAUGU.
As for B7, the binding signal is 0.0127 KA relative to UGCAUGU.
On to B8, for which the binding signal was 0.0131 KA relative to UGCAUGU.
For B9 the value was 0.00764 KA relative to UGCAUGU; for B10, 0.00401 KA relative to UGCAUGU; for B11, 0.00104 KA relative to UGCAUGU.
The figure for B12 is 0.00415 KA relative to UGCAUGU.
For B13 the value was 0.00383 KA relative to UGCAUGU.
Consider B14, for which the binding signal is 0.0149 KA relative to UGCAUGU.
For B15 the value was 0.00841 KA relative to UGCAUGU; for B16, 0.00797 KA relative to UGCAUGU; for B17, 0.0076 KA relative to UGCAUGU.
Regarding B18, the binding signal is 0.00959 KA relative to UGCAUGU.
For B19 the value was 0.00875 KA relative to UGCAUGU; for B20, 0.0268 KA relative to UGCAUGU.

The values above are taken from PMC9911399, “Two distinct binding modes provide the RNA-binding protein RbFox with extraordinary sequence specificity”.
